Reference: PubChem BioAssay AID588855 (National Center for Advancing Translational Sciences (NCATS), 2011)
Hit rate of the full screen: of about 410,000 compounds, about 5,000 (1.2%) were called active. The inconclusive results got no clear call from the source; some entries with a clear call stand among them for comparison. Calls follow the shape of the dose curve; as a rule, active = well fitted inhibition curve with a large enough effect; inconclusive = small, poorly fitted or top-dose-only effect; inactive = no such curve, though single readings can be large or run the other way. Potencies of inconclusive entries are doubtful fits and often do not repeat.

Experiment: qHTS for Inhibitors of TGF-b; also: nearly all actives have a fitted effect of over 65% in size
Details: HepG2 CAGA-GFP TGF-b/SMAD3 reporter, GFP fluorescence, 18 h, TGF-beta stimulated, 500 pg/mL final; series mostly up to 46.1 µM
Procedure, shortened: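 Cell-based qHTS in HEPG2 carrying a CAGA-GFP Smad reporter; compounds added before 500 pg/mL final TGF-beta, 18 h incubation at 37 degrees C, GFP fluorescence quantified per cell by imaging cytometry.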
Potency is read from the fitted curve at half-maximal effect; tags tell the direction and shape of the fitted curve.

Structure (SMILES)	Potency
Cc1cccn2c(=O)c3cc(S(=O)(=O)c4ccccc4)c(=N)n(Cc4ccco4)c3nc12	inactive
CCOc1ccc(CSC2=NCCN2)cc1Cl	inactive
Cc1cccc(Oc2ccc(S(=O)(=O)N3CCCCC3)cc2N)c1	inconclusive: 10 µM [inhibitor, partial curve, poor fit]
Cc1ccc(NCC(=O)Nc2cccc(F)c2)cc1S(=O)(=O)N1CCCCCC1	inconclusive: 11.2 µM [inhibitor, single point]
Cc1ccc(C(=O)N(C)CC(=O)Nc2cccc(F)c2)cc1S(=O)(=O)N1CCCCC1	inconclusive: 10 µM [inhibitor, single point]
O=C(CSc1nc2nn(-c3ccccc3)c(=O)c-2c2n1CCCCC2)NCCCc1ccccc1	inconclusive: 35.5 µM [inhibitor, single point]
Cc1nc2cc(-c3cccc(F)c3)nn2c(C)c1CCC(=O)NC(C)CCc1ccco1 (stereo unspecified)	inconclusive: 11.2 µM [inhibitor, partial curve]
O=c1[nH][nH]c(-c2ccccc2O)c1C(C[N+](=O)[O-])c1ccccc1 (stereo unspecified)	inactive
COC(=O)COc1ccc(/C=N/NC(=O)c2ccc(N(Cc3ccccc3)S(C)(=O)=O)cc2)cc1	inconclusive: 14.1 µM [inhibitor, single point]
O=C(NC(=S)N(CCO)Cc1ccccc1)c1cc(Br)ccc1Cl	inconclusive: 12.6 µM [inhibitor, single point]
COc1ccc(N2CCN(c3cc(C)nc4nncn34)CC2)cc1	inconclusive: 35.5 µM [inhibitor, single point]
CCCCCCCCCn1ccc(=N)cc1	inconclusive: 10 µM [inhibitor, partial curve, poor fit]
Cc1ccc(OCC(=O)Nc2cccc(S(=O)(=O)N3CCCCCC3)c2)c([N+](=O)[O-])n1	inconclusive: 17.8 µM [inhibitor, single point]
CC(=O)N(C)c1ccc(C(O)(C(F)(F)F)C(F)(F)F)cc1	inactive
CC1=C(C(=O)Nc2cccc(C(F)(F)F)c2)C(c2ccccc2)n2ncnc2N1 (stereo unspecified)	inactive
Cc1ccc(NC(=O)c2cc(S(=O)(=O)Nc3ccc(C)cc3)cs2)cc1	inconclusive: 35.5 µM [inhibitor, single point]
O=C(Cc1ccccc1)NCC(=O)N/N=C/c1ccc([N+](=O)[O-])s1	inconclusive: 35.5 µM [inhibitor, single point]
C(=NN=C1c2ccccc2-c2ccccc21)c1c[nH]c2ccccc12	inconclusive: 35.5 µM [inhibitor, single point]
Cc1ccc(S(=O)(=O)Nc2cccc(NC(=O)CN3CCCCC3)c2)cc1	inactive
COc1ccc(Br)cc1CN(C)CC(O)COc1ccc(Br)cc1 (stereo unspecified)	inconclusive: 20 µM [inhibitor, single point]
O=C1CC(=O)Nc2cc(S(=O)(=O)NCc3cccs3)ccc2N1	inactive
C=CCn1c(SCc2c(C(=O)OC)sc(N)c2C(=O)OC)nnc1-c1ccc(Br)cc1	inconclusive: 35.5 µM [inhibitor, single point]

Structure (SMILES)	Potency
CCc1ccc(N(C)S(=O)(=O)c2ccc3[nH]cc(C(=O)NCC4CCCO4)c(=O)c3c2)cc1 (stereo unspecified)	inconclusive: 28.2 µM [inhibitor, single point]
N#Cc1ccccc1NC(=O)c1cnc(N2CCOCC2)c2ccccc12	inactive
Cc1ccc(-c2nn(-c3ccccc3)cc2C=C2C(=O)CC(C)(C)CC2=O)cc1	inconclusive: 10 µM [inhibitor, partial curve, poor fit]
c1ccc2c(c1)OCC(c1csc3ncnc(N4CCOCC4)c13)O2 (stereo unspecified)	inactive
CCC(=O)N1CCc2cc(Br)cc(S(=O)(=O)CCC(=O)NCc3ccc(F)cc3)c21	inconclusive: 35.5 µM [inhibitor, single point]
O=C1NC(=O)C(=Cc2ccccc2[N+](=O)[O-])S1	inactive
CCO[C@H]1OC(C(=O)Nc2ccccc2)=C[C@@H](c2ccc(C(F)(F)F)cc2)[C@@H]1CCCO	active: 14.1 µM
CN(C)c1ccc(N=Nc2ccc(C(=O)O)cc2)cc1	inactive
Cc1csc2nc(COC(=O)CNC(=O)c3ccccc3Cl)cc(=O)n12	inconclusive: 20 µM [inhibitor, single point]
CC(=O)Nc1ccc(Nc2nnc(-c3ccc(C)c(S(=O)(=O)NCCO)c3)c3ccccc23)cc1	inactive
O=C(Nc1c(C(=O)N2CCN(c3ccccc3F)CC2)oc2ccccc12)c1ccccc1F	inconclusive: 2.24 µM [inhibitor, partial curve, poor fit]
O=C(CN1CCCN(Cc2ccc(F)cc2)S1(=O)=O)NCc1ccccc1Cl	inconclusive: 11.2 µM [inhibitor, partial curve, poor fit]
CN1CCN(CCCNC(=O)c2ccc3nc(Cc4ccccc4)oc3c2)CC1	inactive
S=C(NCc1cccnc1)Nc1ccc(Cl)c(Cl)c1	inconclusive: 17.8 µM [inhibitor, single point]
O=[N+]([O-])c1ccc(O)c(/C=N/Nc2nc3ccccc3[nH]2)c1	inconclusive: 7.94 µM [inhibitor, partial curve, poor fit]
Cc1c(C(=O)NCc2ccccc2Cl)sc2nc[nH]c(=O)c12	inactive
Cc1cc(C)nc(-n2nc(C)cc2NC(=O)CN2CCCC(C)C2)n1 (stereo unspecified)	inconclusive: 15.8 µM [inhibitor, single point]
COc1ccc(CCN2C(=O)C3C4C=CC(C3C2=O)C2C(=O)N(CCc3ccc(OC)c(OC)c3)C(=O)C42)cc1OC (stereo unspecified)	inconclusive: 0.0891 µM [inhibitor, full curve, poor fit]
CCOc1ccc(C(=O)Nc2ccc3oc(-c4cccnc4)nc3c2)cc1	inactive
CCCN1CCc2nc(N3CCN(c4ncccn4)CC3)ncc2C1	inconclusive: 1.41 µM [inhibitor, partial curve]
NNC(=O)c1ccc(CSc2nc3ccccc3s2)cc1	inconclusive: 35.5 µM [inhibitor, single point]
CCOC(=O)CCc1ccc(NC(=O)/C=C/c2ccc([N+](=O)[O-])o2)cc1	active: 4.47 µM

Structure (SMILES)	Potency
O=C(CNC(=S)N(CCCN1CCOCC1)Cc1cccs1)NCc1ccccc1Cl	inconclusive: 2.82 µM [inhibitor, partial curve]
O=S(=O)(c1ccccc1Br)N1CCN(c2nc(-c3ccccc3)nc3ccccc23)CC1	inactive
CCc1cccc(CC)c1NC(=O)c1cccc(NC(=O)c2ccccc2)c1	inconclusive: 20 µM [inhibitor, single point]
CC1=C(C(=O)N(C(C)C)C(C)C)CC(CC(=O)NC2CCCCC2)C(=O)N1CCC1=CCCCC1 (stereo unspecified)	inconclusive: 14.1 µM [inhibitor, single point]
CSc1ncc(Cl)c(C(=O)Nc2cccc(C)c2)n1	inconclusive: 0.708 µM [inhibitor, partial curve, poor fit]
Cc1ccc(N(C(=O)CCl)C(C(=O)NC2CCCCC2)c2cccnc2)cc1C (stereo unspecified)	inconclusive: 14.1 µM [inhibitor, partial curve, poor fit]
COc1ccc(C2CC(c3c(O)cc(C)oc3=O)=NCCS2)c(OC)c1 (stereo unspecified)	inconclusive: 5.01 µM [inhibitor, partial curve, poor fit]
CCOc1ccc(N2C(=O)CC(N3CCN(C4CCc5ccccc5C4)CC3)C2=O)cc1 (stereo unspecified)	inconclusive: 0.562 µM [inhibitor, full curve, poor fit]
CCOC(=O)c1ccc(NS(=O)(=O)c2ccc3[nH]c4c(c3c2)CCCCC4)cc1	inconclusive: 35.5 µM [inhibitor, single point]
O=C(NCc1ccco1)C(c1cccs1)N(Cc1ccccc1)C(=O)Cn1nnc2ccccc21 (stereo unspecified)	inconclusive: 12.6 µM [inhibitor, partial curve, poor fit]
OCCNc1c2ccccc2nc2ccccc12	inconclusive: 14.1 µM [inhibitor, single point]
COc1ccc(NC(=O)N2CCCCCC2)cc1	inconclusive: 12.6 µM [inhibitor, partial curve, poor fit]
CC(C)(C)N1C(=O)c2ccc(C(=O)O)cc2C1=O	inconclusive: 15.8 µM [inhibitor, single point]
Cc1csc2c(NCCCN3CCOCC3)ncnc12	inactive
CN1CCN(C(=O)C2=C[C@@H](c3ccccc3)C[C@@H](OCCCCO)O2)CC1	inconclusive: 0.631 µM [inhibitor, partial curve, poor fit]
O=C(Cn1cc(C(F)(F)F)ccc1=O)N/N=C/c1ccc(Cl)c(Cl)c1	inconclusive: 15.8 µM [inhibitor, single point]
O=C(Nc1nc2ccc(C(=O)N3CCCCC3)cc2s1)C1CCCCC1	inactive
O=C(Cc1ccc(NC(=O)C2CCCN(C(=O)CCc3ccccc3)C2)cc1)Nc1cccc(C(=O)N2CCCCC2)c1 (stereo unspecified)	inconclusive: 1.12 µM [inhibitor, full curve, poor fit]
O=C(COC(=O)C1C2CC3OC(=O)C1C3C2)Nc1ccc(Br)cc1 (stereo unspecified)	inactive
Cc1ccccc1NC(=O)C1CCN(S(=O)(=O)c2ccc3c(c2)NC(=O)C(C)S3)CC1 (stereo unspecified)	inconclusive: 20 µM [inhibitor, single point]
Cc1cc(C)n2nc(-c3sccc3-n3c(C)ccc3C)cc2n1	inconclusive: 35.5 µM [inhibitor, single point]
CN1CCN(c2ccc(NC(=O)CSc3nnnn3-c3ccccc3F)cc2)CC1	inactive
